# Experimental data: the supplement of paper PMC3334620
# Whole data set: some 33,000 sequences, median “E-score (-0.5 to 0.5)” near -0.011, cut for the highest 2% near 0.28. The list shows a part of the results.
# Target: T1, Gcr1 (UniProt P07261)
# T1 sequence: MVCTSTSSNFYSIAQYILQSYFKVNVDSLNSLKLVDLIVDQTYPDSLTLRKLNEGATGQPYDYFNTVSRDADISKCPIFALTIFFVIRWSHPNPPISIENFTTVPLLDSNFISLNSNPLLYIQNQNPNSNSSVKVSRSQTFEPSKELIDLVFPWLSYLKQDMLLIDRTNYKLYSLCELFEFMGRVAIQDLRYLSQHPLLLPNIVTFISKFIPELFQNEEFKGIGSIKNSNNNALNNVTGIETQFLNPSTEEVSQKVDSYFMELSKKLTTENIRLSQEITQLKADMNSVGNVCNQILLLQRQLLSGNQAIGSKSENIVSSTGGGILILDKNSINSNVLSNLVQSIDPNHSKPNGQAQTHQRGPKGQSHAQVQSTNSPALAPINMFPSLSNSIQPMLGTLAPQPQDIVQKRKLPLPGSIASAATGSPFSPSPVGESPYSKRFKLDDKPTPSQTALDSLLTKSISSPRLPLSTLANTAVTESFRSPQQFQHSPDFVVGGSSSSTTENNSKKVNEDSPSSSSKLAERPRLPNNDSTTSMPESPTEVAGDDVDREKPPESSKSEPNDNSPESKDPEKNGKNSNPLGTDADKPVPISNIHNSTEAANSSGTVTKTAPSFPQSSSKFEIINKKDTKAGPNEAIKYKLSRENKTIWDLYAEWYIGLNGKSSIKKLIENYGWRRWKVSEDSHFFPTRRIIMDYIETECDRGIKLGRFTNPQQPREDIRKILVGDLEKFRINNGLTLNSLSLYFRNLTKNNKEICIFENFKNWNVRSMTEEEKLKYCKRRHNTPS
# Assay: PBM E-score (8-mer binding enrichment) (E-score (-0.5 to 0.5)); higher = stronger / more preferred TF binding; most listed sequences are background and not binding sites
# Conditions: protein concentration: 100 nM; construct: GST-full length
# In short: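 Using PURExpress in vitro transcription/translation, GST-tagged yeast transcription factors were made in full-length or DNA-binding-domain form. These were applied at about 100-200 nM to double-stranded universal all-10-mer Agilent arrays, and bound protein was detected with fluorescent anti-GST. Scans were normalised with masliner before the Universal PBM Analysis Suite assigned E-scores to ungapped eight-base words pooled with their reverse complements.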
row,Sequence,PBM E-score
1,ATAGTTAC,0.0357
2,GGTGTAAA,-0.0862
3,CTACACTA,0.0262
4,CTTACTTA,-0.0912
5,CACGTTAC,-0.0289
6,CTGTAGGC,-0.115
7,TCTCATCA,-0.105
8,ATTAATCG,0.0955
9,GGCTCTGA,-0.09
10,GTGGGGCA,0.0277
11,ATCACTTA,-0.176
12,CTAGGGAG,0.0107
13,TGGTCCAA,-0.0643
14,ACACGATA,0.0731
15,GAAAGCAA,-0.188
16,GACCTAAA,0.137
17,AGGTAGGA,-0.00243
18,GTGTAGTA,-0.0745
19,CTGGCTGA,-0.225
20,AACGTCGT,-0.0165
21,AGGGTCAT,-0.311
22,AGCGTACG,-0.221
23,GGGCCCCC,-0.0699
24,AACCCCGA,0.0757
25,TGAGCGAA,-0.0526

row,Sequence,PBM E-score
1,CTAGAACA,0.0582
2,CCGTAAGA,-0.0115
3,ACCTTAGC,-0.209
4,CTCAAAGC,-0.181
5,AAGGCCCT,-0.139
6,CCCACCAA,0.159
7,ATTAATAG,0.196
8,AGTCGCAA,-0.0494
9,CTCCACTA,0.215
10,AATCGCGT,0.132
11,AGATCCAG,0.252
12,ATCAGTTC,-0.0665
13,GAGAGCTC,-0.255
14,GAATGTGA,-0.129
15,CATTCGCA,-0.0163
16,TCACCTAA,0.0538
17,AATCGGTA,0.138
18,AGTTGGAA,0.187
19,AATTATGT,0.032
20,AAACGTCG,0.0491
21,ACTACGCG,0.0454
22,CCGAATCG,-0.0347
23,AGACCACA,-0.0831
24,AGAAGAGC,0.027
25,GAACTGGC,0.116

row,Sequence,PBM E-score
1,ATAGGGGC,0.127
2,CACCAGTA,0.0978
3,GCAGTGGC,-0.0564
4,AGAGACGA,-0.168
5,CCGTGAGC,-0.236
6,ACCGTTCC,-0.187
7,AAACATAT,0.068
8,CCACAGTC,-0.16
9,CAGCGTAA,0.00692
10,CGATCGTC,-0.11
11,TCAACCGA,-0.0286
12,CAGTATGG,0.0545
13,AAACTGGA,0.224
14,CATTACAA,0.0311
15,GTAACTGA,-0.0947
16,CGAGCATA,-0.0961
17,CAAGGCTC,-0.206
18,CCCGTCCC,-0.162
19,GGATGCAA,0.183
20,CGAAAAAC,0.0498
21,GTTGTGGA,0.166
22,AAGTGCCA,-0.0488
23,AAAACTTG,0.15
24,GGTCGCCA,0.155
25,GCTTGGAC,-0.122

row,Sequence,PBM E-score
1,AGTAGCGC,0.21
2,GCAGCCGC,0.282
3,CTAAATTA,0.259
4,AATGCGAC,0.0447
5,GCCCAAGC,0.00848
6,CACGGGAC,-0.0178
7,CCCATGTC,-0.0978
8,CTCCCTTA,-0.0514
9,ATTAACCC,-0.149
10,ACTAGTGA,0.12
11,TAGAATCA,0.0337
12,CGGGCCAC,-0.0425
13,CCATCCTA,0.0473
14,GACTAGGC,-0.229
15,CTAAGCAC,-0.121
16,TCGAAAGA,0.0113
17,CCCAATGA,0.026
18,AAGGTGCT,0.22
19,AACTGACC,-0.32
20,CGATGTAA,-0.0331
21,GGATCTAC,-0.0183
22,ATACAAGA,0.138
23,CATCACGG,-0.01
24,ACGCGTAG,0.0372
25,CTCCATCC,-0.0484

row,Sequence,PBM E-score
1,GGTATGGA,-0.0346
2,AACAACCA,-0.0381
3,CATTTCCA,0.127
4,GCTTAAAA,0.125
5,ATACTGCC,-0.104
6,ACGGCGTC,0.243
7,CGTATAAC,0.269
8,AATTGGTG,0.071
9,GCGTCCAC,0.339
10,CGATATCC,0.062
11,AATGAGCG,-0.0664
12,AACCGGCT,-0.144
13,ACGCTGAT,-0.0742
14,GTAAAATA,0.176
15,ATAGCTTG,-0.214
16,GTCAGGAA,0.104
17,CCACCTTA,0.0762
18,CAGTGTCC,-0.0704
19,CAACACCC,0.0217
20,GTGTTGTA,-0.0664
21,AGGCTAAC,-0.0765
22,CGGCGGTC,-0.25
23,CCTCACTC,-0.00235
24,ATAATAAG,0.0786
25,TAGTAAGA,0.0909

row,Sequence,PBM E-score
1,CTCGCCCC,-0.192
2,GGAGATCA,-0.079
3,CAACTGAA,0.0567
4,ATGGGGCA,-0.0354
5,CCGCCGAA,-0.0708
6,ACCCAGGC,-0.0429
7,CTCGCAAG,-0.145
8,AGTATTAA,-0.0512
9,AGTGATGA,0.0827
10,GTGAGTTA,-0.322
11,CGCGGGAA,-0.0281
12,GGACATAA,-0.0172
13,AGCACCCC,0.131
14,ACATCTAT,0.232
15,CTCCAGAA,0.0346
16,AACAAGTC,-0.0273
17,AAGACATA,-0.177
18,CTCGGGGA,-0.103
19,GCACGGAA,-0.113
20,GCGCATCA,0.0737
21,CGAGTTGA,0.0527
22,AGGTAGAA,-0.0852
23,AAAAGGGC,0.0465
24,GGTAGGCA,-0.0819
25,AATTTCCA,0.119

row,Sequence,PBM E-score
1,CACGCAAA,-0.214
2,CAGCTTAC,-0.0902
3,ATCGTACC,0.0387
4,AAGTCCAA,0.0133
5,AGCTGCTC,0.0901
6,GGGACTAA,-0.17
7,AAAGGTGC,0.0916
8,AATACTGA,0.0152
9,AATGGCAT,0.0702
10,GGAGGACA,-0.289
11,ATGCTTCA,-0.148
12,GGGGGCTA,-0.171
13,AGAACTGG,0.262
14,AACGACCA,0.0113
15,CGTCGGAC,-0.138
16,AAGCGACC,0.00658
17,TACAGGGA,0.0615
18,ACTTTCTA,0.0663
19,GAAACAAC,0.0537
20,CGAGCTGC,0.151
21,TAAGACCA,-0.0414
22,CTCCACCA,-0.0877
